Data reported in the BET-seq Pho4 binding data (Le et al. 2018).
This is one part of the list. The energies were worked out here from pooled read counts, against the library average; single values are noisy.

Molecular target: T1, Pho4 (S. cerevisiae) (UniProt P07270)
T1 sequence: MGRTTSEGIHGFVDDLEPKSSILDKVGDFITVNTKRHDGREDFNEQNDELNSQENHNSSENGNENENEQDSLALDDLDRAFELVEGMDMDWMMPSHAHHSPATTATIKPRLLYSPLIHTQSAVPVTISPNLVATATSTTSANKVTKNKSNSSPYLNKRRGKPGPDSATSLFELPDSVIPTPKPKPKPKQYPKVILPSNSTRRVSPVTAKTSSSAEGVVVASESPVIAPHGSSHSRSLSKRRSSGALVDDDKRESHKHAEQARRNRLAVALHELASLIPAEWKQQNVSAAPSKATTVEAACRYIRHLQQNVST
Assay: relative binding free energy (BET-seq); higher = weaker binding
Details: reference: library average

| Sequence | relative binding free energy [kcal/mol] |
| --- | --- |
| TTGATCACGTGAAGTA | 0.35 |
| GTTTGCACGTGTGTAC | -0.01 |
| TTGTACACGTGTTCTT | -0.08 |
| GGTTACACGTGAGGAC | 0.29 |
| AGTATCACGTGAGCGT | 0.15 |
| TGATGCACGTGTACGT | -0.04 |
| TCTGCCACGTGTTGGT | -0.06 |
| GGGGACACGTGAATGG | 0.24 |
| TTGTGCACGTGGATTA | 0.03 |
| TCTTGCACGTGCGGGT | -0.09 |
| TGGTTCACGTGATGAG | 0.43 |
| GAATGCACGTGAGGTA | 0.31 |
| AACATCACGTGTTTGG | 0.18 |
| TATCGCACGTGGGTAT | -0.17 |
| CGTTTCACGTGTGATT | 0.42 |
| GTTGCCACGTGGTATA | 0 |
| TTTGGCACGTGGGGCG | -0.29 |
| TTTTCCACGTGGTTGA | -0.01 |
| GTGAGCACGTGGATAG | -0.1 |
| AGTGTCACGTGTGTCA | -0.02 |
| AGGTCCACGTGTGATG | 0.04 |
| GGGGTCACGTGGCTAG | 0.08 |
| TAGAGCACGTGTTTGA | -0.17 |
| ATTCACACGTGATTGT | 0.17 |
| TGAGTCACGTGCGAGC | 0.25 |

| Sequence | relative binding free energy [kcal/mol] |
| --- | --- |
| TAGGGCACGTGACGGT | -0.02 |
| TTTGACACGTGGGGAA | -0.08 |
| TGTGTCACGTGGTGTA | -0.01 |
| TGAACCACGTGGGGGG | -0.26 |
| AGTGGCACGTGATGAA | 0.04 |
| TTTTACACGTGGCCTG | -0.02 |
| AGGGCCACGTGCGGAA | 0 |
| GGGAGCACGTGATAAG | 0.06 |
| ATCGTCACGTGGTCGG | 0.06 |
| TCACTCACGTGATGGG | 0.38 |
| GTGTACACGTGAGATG | 0.2 |
| TTGGGCACGTGTTTGA | -0.03 |
| GGCTTCACGTGTGATA | 0.36 |
| GGGACCACGTGGTGTA | -0.23 |
| CAGTTCACGTGAGCGG | 0.32 |
| ATGTACACGTGGTATT | 0.05 |
| AGATACACGTGGGTTA | -0.05 |
| ATGGACACGTGTTTTA | 0.04 |
| AGGATCACGTGATTGT | 0.31 |
| TCTGTCACGTGGTGTG | 0.07 |
| GAATTCACGTGGGGTC | 0.23 |
| AATAGCACGTGGGGCT | -0.21 |
| GGTGCCACGTGAGGTC | 0.16 |
| AAGGGCACGTGTTTCA | -0.11 |
| TTTGGCACGTGTCATC | -0.05 |

| Sequence | relative binding free energy [kcal/mol] |
| --- | --- |
| TTGGTCACGTGGGATG | 0.07 |
| ATTGTCACGTGATTTA | 0.28 |
| TGAATCACGTGGCTTT | 0.13 |
| TTCCACACGTGGGGGG | -0.13 |
| ACCGGCACGTGGGGGA | -0.28 |
| GTTATCACGTGGTATT | 0.13 |
| AGGTGCACGTGTTCAT | 0.12 |
| ATTCTCACGTGGCGGG | 0.18 |
| GTGTACACGTGAGTGT | 0.33 |
| CTTGGCACGTGTGTCT | -0.07 |
| GTGTTCACGTGAGAAG | 0.37 |
| TCGTGCACGTGATGGT | 0.1 |
| CAGATCACGTGGAGGT | 0.19 |
| ATGGACACGTGGGTGG | -0.13 |
| GTAGTCACGTGTTCGA | 0.05 |
| ATGATCACGTGTGTGT | 0.15 |
| TTGCGCACGTGTTATA | -0.1 |
| TCTTGCACGTGCTGTG | -0.04 |
| AGAGCCACGTGTAGGG | -0.2 |
| GAGGTCACGTGTTGGT | 0.22 |
| TGGTCCACGTGTAGTG | 0.02 |
| TATTTCACGTGCGTGC | 0.18 |
| TTTAACACGTGTGGCG | 0.11 |
| GTTGTCACGTGTCGAA | 0.19 |
| TTGGGCACGTGTTGTG | -0.1 |

| Sequence | relative binding free energy [kcal/mol] |
| --- | --- |
| GGTGGCACGTGGGTGC | -0.2 |
| CGAATCACGTGTGGGA | 0.25 |
| CGGTGCACGTGGTGCG | -0.1 |
| TTCAACACGTGTTGCG | 0.22 |
| CAGGCCACGTGTGGGG | -0.12 |
| TGTGCCACGTGTATTG | -0.08 |
| TAATGCACGTGATTTA | -0.08 |
| TCAGGCACGTGATGTG | -0.02 |
| TGTACCACGTGCAGGG | -0.1 |
| TGTTTCACGTGGGACT | 0.24 |
| GATGTCACGTGTGCTG | 0.19 |
| GATGGCACGTGGGATA | -0.14 |
| GTATGCACGTGGGCGG | -0.16 |
| TGTTGCACGTGGGTCG | -0.2 |
| TGTTACACGTGAGGTG | 0.23 |
| AAGAGCACGTGGCGGT | -0.16 |
| TTGAGCACGTGAGTGA | 0.14 |
| ATTGACACGTGGCGAG | 0.07 |
| CAGTGCACGTGTTAGG | -0.08 |
| ATGAGCACGTGGACGT | 0 |
| GCGTACACGTGGTTGT | 0.07 |
| TAATTCACGTGGGAGG | 0.14 |
| AAGTACACGTGCAGGT | 0.04 |
| TCTGTCACGTGATGGT | 0.2 |
| TCGGACACGTGTAGGC | 0.26 |

| Sequence | relative binding free energy [kcal/mol] |
| --- | --- |
| ATAAACACGTGATTTG | 0.11 |
| GTGAACACGTGGTGTA | -0.04 |
| GAGTTCACGTGTGTGT | 0.34 |
| TCTGTCACGTGGAGTA | 0.07 |
| ATTGTCACGTGAAGGA | 0.32 |
| TGGTACACGTGCTCGT | -0.04 |
| GACGACACGTGTGGGT | 0.02 |
| AGACTCACGTGTTGGT | 0.22 |
| TCAATCACGTGGCGGG | 0.21 |
| TAAATCACGTGGGGGG | 0.04 |
| AGTAACACGTGTGAGA | 0.07 |
| TAACGCACGTGAGGGT | 0.16 |
| AGACGCACGTGGATGG | -0.07 |
| TGAAGCACGTGTAGAG | 0.02 |
| GTCTTCACGTGTTTGG | 0.34 |
| TCAGTCACGTGGTCGT | 0.06 |
| CAGAACACGTGGGTGG | -0.17 |
| GTTGGCACGTGAAAAA | 0.28 |
| AGCTGCACGTGGTTTT | -0.09 |
| TACATCACGTGATGGT | 0.09 |
| AGAGGCACGTGCATGG | -0.25 |
| TCGGGCACGTGACTTG | 0.07 |
| ACAGGCACGTGATATG | 0.11 |
| GATGTCACGTGGATTT | 0.21 |
| GTGTCCACGTGCGGTG | 0.09 |

| Sequence | relative binding free energy [kcal/mol] |
| --- | --- |
| GAGGGCACGTGTTTGC | 0.03 |
| CGTGGCACGTGGCGGG | -0.19 |
| GCCGGCACGTGGTGTG | -0.28 |
| GTTGCCACGTGAAGTG | 0.23 |
| TCTTTCACGTGGGTCT | 0.12 |
| GAGAGCACGTGCTGGT | 0.05 |
| TTTTGCACGTGTGGCT | 0.11 |
| GGCTGCACGTGAGTTT | 0.34 |
| ATTATCACGTGGTGAT | 0.04 |
| CTATTCACGTGTTGTC | 0.31 |
| TCGAACACGTGGGGGG | -0.17 |
| TTTGGCACGTGTGGTA | -0.02 |
| TGTAGCACGTGATCGT | -0.03 |
| ATCTTCACGTGAGTGT | 0.38 |
| TGTTTCACGTGCGTTG | 0.27 |
| AGGTACACGTGTAATG | 0.04 |
| GTTAACACGTGGGGGA | -0.06 |
| ATGCTCACGTGGGTCG | 0.06 |
| TTCTTCACGTGTGAAT | 0.24 |
| TGGGTCACGTGGATAT | 0.2 |
| ATGTTCACGTGCTTAT | 0.16 |
